Reference: patent publication US20160031967A1 (Affibody, published 2016)
One block for each binder: values may come before it.

Key:
[1] = molecular target: T1, human PSMA (in house produced) (human, UniProt Q04609 44-750, limits assumed); test: ELISA, pH 6.0 and pH 7.4
T1 construct: Biotinylated

[2] = molecular target: T2, human FcRn: extracellular domain of human αFcRn in complex with human β2-microglobulin, soluble, produced in … (human, UniProt P55899 24-290; P16213 21-119); test: ELISA, Z-ABD captured on anti-ABD, biotinylated human FcRn titrated, pH 6.0
T2 construct: Ig kappa leader cleaved upon secretion; Biotinylated for ELISA, amine coupled for Biacore; also called hFcRn; not shown: C-terminal GS-linker and FLAG tag; C-terminal GS-linker and His6 tag
Method: (§1) After washing as described above, 50 μl ImmunoPure TMB substrate (Thermo Scientific, cat. no. 34021) was added to the wells and the plates were treated according to the manufacturer's recommendations.

[3] = molecular target: T2, human FcRn: extracellular domain of …; test: ELISA, Z-ABD captured on anti-ABD, biotinylated human FcRn titrated, pH 7.4
Method: as §1

[4] = molecular target: T2, human FcRn: extracellular domain of …; test: Biacore, human FcRn immobilized, pH 6.0
[5] = molecular target: T3, mouse FcRn-eGFP on transduced HeLa cells (with mB2M) (mouse, UniProt Q61559 22-365; P01887 21-119); test: flow cytometry, Alexa647 labeled Z variant, mFcRn-eGFP HeLa cells, pH 6.0
T3 construct: Amino acids 1-369 of mFcRn with the original signal peptide; cells fixed and permeabilised with saponin; also called mFcRn-eGFP; mFcRn; not shown: eGFP fused at the cytoplasmic tail
T3 sequence: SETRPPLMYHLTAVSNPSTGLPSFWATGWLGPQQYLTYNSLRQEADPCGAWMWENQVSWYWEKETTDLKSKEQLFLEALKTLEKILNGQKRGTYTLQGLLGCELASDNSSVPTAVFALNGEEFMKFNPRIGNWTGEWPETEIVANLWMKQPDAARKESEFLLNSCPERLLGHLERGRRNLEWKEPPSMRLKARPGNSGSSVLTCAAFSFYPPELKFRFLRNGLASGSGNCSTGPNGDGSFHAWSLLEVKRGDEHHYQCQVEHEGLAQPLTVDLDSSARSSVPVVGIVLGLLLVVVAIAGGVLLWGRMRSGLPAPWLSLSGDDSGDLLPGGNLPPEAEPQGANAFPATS
T3 sequence (b2m): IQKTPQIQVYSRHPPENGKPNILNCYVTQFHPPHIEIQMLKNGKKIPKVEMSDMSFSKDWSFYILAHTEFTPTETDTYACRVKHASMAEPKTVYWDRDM

[6] = molecular target: T4, human FcRn (Biorbyt, cat. no. orb84388) (human, UniProt P55899 24-297; P61769 21-119, limits assumed); test: AlphaLISA blocking of IgG (Roactemra) binding to biotinylated human FcRn, pH 6.0
T4 construct: Bought protein; Biotinylated in AlphaLISA and ELISA; also called biotinylated human FcRn
Method: Stepwise serial dilutions 1:3 of His-tagged Z variants to final concentrations of 250 nM to 38 pM were made in a 384-well plate (Perkin Elmer, cat. no. G6005350) and incubated for 45 min with 10 nM biotinylated human FcRn (Biorbyt, cat. no. orb84388; biotinylated essentially as described in Example 2) in AlphaLISA buffer (Perkin Elmer, cat. no. AL000F) adjusted to pH 6.0 using HCl. IgG-coated Acceptor beads were added to a final concentration of 10 μM and incubated for 45 min. Finally, streptavidin coated Donor beads (Perkin Elmer, cat. no. 6772002) were added to a final concentration of 40 μg/ml and incubated for 30 min. All incubations were performed at RT in the dark. The plate was analyzed in the EnSpire instrument and the IC50 values were calculated using GraphPad Prism 5.

T1 sequence (Q04609 44-750 limits assumed): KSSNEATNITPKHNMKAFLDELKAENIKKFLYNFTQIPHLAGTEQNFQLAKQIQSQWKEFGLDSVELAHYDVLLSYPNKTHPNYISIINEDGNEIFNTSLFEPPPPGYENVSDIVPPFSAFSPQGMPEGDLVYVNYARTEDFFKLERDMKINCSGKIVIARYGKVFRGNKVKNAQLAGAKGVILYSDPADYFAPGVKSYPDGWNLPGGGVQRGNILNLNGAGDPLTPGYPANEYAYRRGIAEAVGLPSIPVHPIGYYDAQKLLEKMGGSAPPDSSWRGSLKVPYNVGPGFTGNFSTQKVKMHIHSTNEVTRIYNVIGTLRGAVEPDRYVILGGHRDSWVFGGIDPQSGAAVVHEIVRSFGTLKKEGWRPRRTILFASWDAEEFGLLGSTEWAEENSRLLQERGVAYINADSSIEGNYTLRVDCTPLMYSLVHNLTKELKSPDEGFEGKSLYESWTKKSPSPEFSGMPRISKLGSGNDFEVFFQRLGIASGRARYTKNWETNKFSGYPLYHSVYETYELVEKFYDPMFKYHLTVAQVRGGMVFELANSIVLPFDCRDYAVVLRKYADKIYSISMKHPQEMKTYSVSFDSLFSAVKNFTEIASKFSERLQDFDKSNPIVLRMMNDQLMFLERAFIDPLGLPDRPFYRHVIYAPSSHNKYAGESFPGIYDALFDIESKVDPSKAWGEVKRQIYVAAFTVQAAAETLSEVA

binding result [1]: no binding (tested: 2 µg/ml) | Kd [2]: 2.3 nM | Kd [3]: 25.9 nM
B1: Z10193-ABD fusion (designed binder)
chain: AQHDEALEVDAKYAKEWMRAAHEIRWLPNLTFDQRVAFIHKLEDDPSQSSELLSEAKKLNDSQAPKVDYVLAEAKVLANRELDKYGVSDYYKNLINNAKTVEGVKALIDEILAALPYVPG
notes: domain: GA3; periplasmic Z-ABD fusion

B2: Z03638-PP013 (negative control) (designed binder)
chain: AEAKYAKELGWATWEIFNLPNLTGVQVKAFIDKLRDDPSQSSELLSEAKKLNDSQAPKGAPGGGGSGGGGSGGGGSGGGGSTSLAEAKEAANAELDSYGVSDFYKRLIDKAKTVEGVEALKDAILAALP
notes: also called [Z03638]-GAP(G4S)4TS-[PP013]; PP013-Z03638 negative control
binding result [4]: no binding (tested: 40 nM, 160 nM and 640 nM)

binding result [5]: binds | IC50 [6]: 42 nM
B3: His6-tagged Z07930 (designed binder)
chain: MGSSHHHHHHLQVDAKYAKESDSAVHEIRWLPNLTFDQRVAFIHKLLDDPSQSSELLSEAKKLNDSQAPKVD
